From ChEMBL document CHEMBL4888484, “Replenishing the malaria drug discovery pipeline: Screening and hit evaluation of the MMV Hit Generation Library 1 (HGL1) against asexual blood stage Plasmodium falciparum ,using a nano luciferase reporter read-out” (2022)
The whole screen tested about 150,000 compounds, of which about 540 (0.36%) showed an effect of 50% or more. Some of the results follow.

What follows are compounds tested on Plasmodium falciparum (assay: Primary screen in NF54 nanoGlo assay, in single point, at 2uM, 72h; a lower Z score goes with more inhibition). Details: timepoint 72 hour.
Assay type: functional, Erythrocyte
COCc1ncc(Br)c(O)n1 was tested, and the “% Inhibition” value was 9% and the Z score was -1.12.
For CCOCCN1CCC=C([C@H](C)NC(=O)c2cccc(C#N)c2)C1, the “% Inhibition” value was 4% and the Z score was -0.7.
With COCCCNC(=O)CCc1c(-c2cccc(OC)c2)nc2ccc(-c3ccc(C(C)=O)cc3)cn12 the “% Inhibition” value was 11% and the Z score was -1.74.
For CCO[C@H]1[C@H](NC(=O)c2cccnc2)c2ccccc2C12CCN(C(=O)c1cc(F)cc(F)c1)CC2, the “% Inhibition” value was -2% and the Z score was 0.45.
O=C(COC(=O)c1cccc2ccccc12)NC(=O)NC1CCCC1 was tested, and the “% Inhibition” value was -3% and the Z score was 0.37.
With Nc1cc(S(=O)(=O)Nc2ccc(Cl)cc2)ccc1N1CCOCC1 the “% Inhibition” value was -6% and the Z score was 1.03.
With CN1CCc2ncnc(N3CCN(C(=O)C4CCCC4)CC3)c2C1 the “% Inhibition” value was -4% and the Z score was 0.69.
For COCC[C@H]1CN(Cc2cc(C(C)=O)cn2C)CCO1, the “% Inhibition” value was -4% and the Z score was 0.4.
For Cc1ccc2cc1OCCCn1cc(nn1)CCN(CCC(C)C)CCNC(=O)[C@H]([C@@H](C)O)NC2=O, the “% Inhibition” value was -13% and the Z score was 2.5.
With CC(=O)Oc1c(-c2ccc(NC(=O)CC(C)C)cc2)c(C(C)C)nn1-c1ccccc1 the “% Inhibition” value was -15% and the Z score was 1.72.
With Cn1ccc(NC(=O)c2ccc(=O)[nH]n2)n1 the “% Inhibition” value was -7% and the Z score was 1.49.
In the case of Cc1ccn2c(NC(=O)[C@@H]3CC=CCC3)nnc2n1, the “% Inhibition” value is reported as 0% and the Z score is reported as 0.09.
In the case of CC[C@H](C)CS(=O)(=O)NC(=O)c1cc(C(C)(C)C)on1, the “% Inhibition” value is reported as 4% and the Z score is reported as -0.47.
For Cc1sc2ncnc(N[C@H]3CCN(C(=O)c4ccccn4)C[C@@H]3O)c2c1C, the “% Inhibition” value was -4% and the Z score was 0.55.
In the case of CCc1nccn1CCC(=O)NCC1CCN(C(=O)c2nccnc2O)CC1, the “% Inhibition” value is reported as 5% and the Z score is reported as -0.63.
For CN(C)c1nc(N2CCN(C3CCCCC3)CC2)nc2c1CN(C(=O)c1cccc(F)c1)CC2, the “% Inhibition” value was 23% and the Z score was -2.58.
For Cc1c(C(=O)NCCN2CCCC(C)(C)C2)nnn1-c1ccc(F)c(F)c1, the “% Inhibition” value was -11% and the Z score was 1.16.
With CCN(CCOc1ccccc1F)C(=O)c1ccc2[nH]nnc2c1 the “% Inhibition” value was -3% and the Z score was 0.56.
For Cc1cccc(NC(=O)NC[C@H](O)C2CCCCC2)n1, the “% Inhibition” value was 5% and the Z score was -0.58.
In the case of C[C@H]1CN(Cc2cccc(O)c2Cl)CC(=O)N1C, the “% Inhibition” value is reported as -5% and the Z score is reported as 0.89.
For Cn1cc(CN2CCN3C(=O)N(c4ccccc4)C[C@H]3C2)cn1, the “% Inhibition” value was -7% and the Z score was 1.05.
c1ccc(Cc2cn3c(-c4ccccc4)cnc3s2)cc1 was tested, and the “% Inhibition” value was -8% and the Z score was 1.49.
For CC(C)(C)c1ccc([C@@H](CC(=O)NCCN2CCOCC2)c2c[nH]c3ccccc23)cc1, the “% Inhibition” value was -4% and the Z score was 0.47.
With CCO[C@@H](C)C(=O)N1CCC2(CCC(=O)N(CCc3c[nH]cn3)C2)CC1 the “% Inhibition” value was -1% and the Z score was 0.21.
With C[C@@H](CCN1CCCC1=O)NC(=O)Cc1ccccc1O the “% Inhibition” value was -4% and the Z score was 0.74.
For COC1CCC2OCCN(C(=O)c3occc3C)C2C1 (stereo not given), the “% Inhibition” value was 9% and the Z score was -0.86.
With Cc1cccc(CN2C[C@@H](F)[C@@H](OCc3nc4ncccc4[nH]3)C2)n1 the “% Inhibition” value was -11% and the Z score was 1.44.
With CC(C)c1noc(C2CCN(C(=O)C(=O)c3cccn3C)CC2)n1 the “% Inhibition” value was 7% and the Z score was -0.69.
For COc1nccnc1NC1CCN(C(=O)c2ccc3cc[nH]c3c2)CC1, the “% Inhibition” value was -9% and the Z score was 1.14.
For O=C(Nc1cc(N2CCCS2(=O)=O)ccc1O)c1cccc(Oc2cccc(C(F)(F)F)c2)c1, the “% Inhibition” value was 99% and the Z score was -18.11.
In the case of Cc1nnsc1C(=O)Nc1nnc(COc2ccccc2)o1, the “% Inhibition” value is reported as 8% and the Z score is reported as -1.14.
With Cc1ccc(NC(=O)CCc2nc(-c3nn(-c4ccc(F)cc4)c(=O)n(C)c3=O)no2)cc1F the “% Inhibition” value was -4% and the Z score was 0.79.
COc1cc2c(cc1-c1cn(Cc3cncn3C3CC3)nn1)CCC2 was tested, and the “% Inhibition” value was 5% and the Z score was -0.75.
In the case of O=C(CCn1ccnc1)N1CCC[C@H](CCc2ccccc2C(F)(F)F)C1, the “% Inhibition” value is reported as -5% and the Z score is reported as 1.03.
With CC1(Cn2cc(-c3nc(-c4ccncc4)no3)nn2)COC1 the “% Inhibition” value was -4% and the Z score was 0.77.
For Cn1nccc1C(=O)NC[C@H]1CCCN(c2cnsn2)C1, the “% Inhibition” value was -3% and the Z score was 0.53.
With Cc1cc(C)cc(C(=O)N2CCC[C@H]2c2nc(-c3ccccc3)no2)c1 the “% Inhibition” value was -10% and the Z score was 1.12.
O=C(NCc1ncc[nH]1)C1(c2cccc(Cl)c2)CCCCC1 was tested, and the “% Inhibition” value was -3% and the Z score was 0.35.
COc1ccc(OCC(=O)Nc2cc(C)nn2-c2nc3c(cnn3-c3ccc(C)c(C)c3)c(=O)[nH]2)cc1 was tested, and the “% Inhibition” value was 8% and the Z score was -1.17.
With COCc1nc(CN(CCO)C(C)C)cs1 the “% Inhibition” value was -13% and the Z score was 1.15.
For Cc1noc(C2(NC(=O)Nc3ccc(F)c(C(=O)N(C)C)c3)CCOCC2)n1, the “% Inhibition” value was -3% and the Z score was 0.58.
For c1cc(CCn2ccc(NC3CCCCCC3)n2)ccn1, the “% Inhibition” value was -3% and the Z score was 0.6.
In the case of O=S(=O)(NCCOc1ncccc1Cl)c1cccs1, the “% Inhibition” value is reported as -4% and the Z score is reported as 0.69.
With CCC(C)CN(CC(=O)N1CCc2sccc2C1COc1ccc(C)cc1)C(=O)c1ccc2c(c1)OCO2 (stereo not given) the “% Inhibition” value was -13% and the Z score was 1.68.
In the case of Cc1cc(N(C)Cc2ccccc2)c2cccc(C(=O)O)c2n1, the “% Inhibition” value is reported as -31% and the Z score is reported as 3.65.
In the case of NC(=O)Cc1ccccc1OCCC1CCCC1, the “% Inhibition” value is reported as -7% and the Z score is reported as 0.93.
With CN1CCN(c2nccs2)C[C@@]12CCC(=O)N(CC1CC1)CC2 the “% Inhibition” value was 10% and the Z score was -1.45.
With O=C(CCn1cc(Cl)cn1)NC[C@@H]1COc2ccccc2C1 the “% Inhibition” value was -3% and the Z score was 0.36.
For Cn1c(-c2cc3n(n2)CCN(Cc2cnn4cccnc24)C3)nc2ccccc21, the “% Inhibition” value was -5% and the Z score was 0.93.
For Cc1cc(C)c2c(c1)OCC[C@@H]2NC1CCN(C)CC1, the “% Inhibition” value was -3% and the Z score was 0.3.
For C=CCNC(=O)Nc1cc(Br)ccc1Br, the “% Inhibition” value was -2% and the Z score was 0.4.
For CN1CCN(C(=O)c2ccnc(C3CCCC3)n2)CC1(C)C, the “% Inhibition” value was 2% and the Z score was -0.49.
With CCN(C(=O)c1cccc(C)n1)[C@H]1COC[C@@H]1O the “% Inhibition” value was -3% and the Z score was 0.55.
O[C@@H](CNCc1ccc(Br)c2cccnc12)c1ccco1 was tested, and the “% Inhibition” value was 14% and the Z score was -1.38.
With CCn1c(CO)nnc1[C@H]1C[C@H](NC(=O)CCc2c(C)noc2C)C1 the “% Inhibition” value was 10% and the Z score was -1.14.
With C[C@](O)(CNCc1ccsc1S(N)(=O)=O)c1ccccc1 the “% Inhibition” value was -16% and the Z score was 2.44.
Cc1nscc1C(=O)OCc1nc2ccc(F)cc2o1 was tested, and the “% Inhibition” value was -3% and the Z score was 0.53.
In the case of CC(=O)NCC(=O)N1CC(n2cc(COc3ccccc3)nn2)C1, the “% Inhibition” value is reported as -12% and the Z score is reported as 1.8.
In the case of CC1(C)CN(c2ccc(CS(C)(=O)=O)cn2)C[C@]1(C)O, the “% Inhibition” value is reported as -2% and the Z score is reported as 0.46.
For CS(=O)(=O)NCC1(Cc2ccccc2)CCC1, the “% Inhibition” value was -1% and the Z score was 0.23.
For Cn1cc(Br)c(N)cc1=O, the “% Inhibition” value was 7% and the Z score was -1.35.
With CN1CC[C@H](C(=O)NCCc2cccnc2)CC1=O the “% Inhibition” value was -12% and the Z score was 1.51.
With CCNC(=O)N1CCC(F)(C(=O)N2CCCC2)CC1 the “% Inhibition” value was -6% and the Z score was 0.81.
With CCc1cc(OCC(N)=O)ccc1Cl the “% Inhibition” value was -13% and the Z score was 1.71.
For CC1=NN(Cc2ccccc2)C(=O)[C@H]1C(=O)Nc1ccccc1, the “% Inhibition” value was -11% and the Z score was 1.69.
In the case of Cc1cc2cccc(C(=O)N3C[C@H](O)[C@@H](F)C3)c2o1, the “% Inhibition” value is reported as -6% and the Z score is reported as 1.17.
For Cc1cc(C)c(-c2cc(C(=O)NCCC(=O)N3CCOCC3)no2)c(C)c1, the “% Inhibition” value was -2% and the Z score was 0.35.
In the case of COc1ccc(C2=NN(C(=O)CN(CCN3CCOCC3)C(=O)NC(C)C)[C@H](c3ccccc3)C2)cc1, the “% Inhibition” value is reported as -22% and the Z score is reported as 1.94.
For O=C(O)c1[nH]nc(C2CC2)c1Cc1ccccc1, the “% Inhibition” value was -7% and the Z score was 1.41.
COc1ccc(N2CCN(C(=O)c3sc4nc(-c5ccccc5)cn4c3C)CC2)cc1 was tested, and the “% Inhibition” value was -15% and the Z score was 1.98.
For Cc1noc(C)c1COC(=O)c1nccnc1-c1nc2ccccc2s1, the “% Inhibition” value was -1% and the Z score was 0.13.
In the case of O=C(CCCNS(=O)(=O)c1ccc(Cl)cc1)NCc1ccco1, the “% Inhibition” value is reported as -12% and the Z score is reported as 1.59.
For COc1c(C)cc(S(=O)(=O)N2CCC[C@H]2c2ccon2)cc1C, the “% Inhibition” value was -6% and the Z score was 1.24.
For Cc1ccc(N(C)C(=O)c2cccc(=O)[nH]2)cc1C, the “% Inhibition” value was -1% and the Z score was 0.1.
In the case of O=C(COc1ccccc1)N1CCC[C@H](S(=O)(=O)N2CCOCC2)C1, the “% Inhibition” value is reported as -10% and the Z score is reported as 1.64.
With COCCC1(CNC(=O)CC(F)(F)F)CCCC1 the “% Inhibition” value was -12% and the Z score was 1.59.
With CN(C)S(=O)(=O)Nc1ccc2nc(-c3ccccn3)oc2c1 the “% Inhibition” value was 3% and the Z score was -0.3.
In the case of CCn1nc(-c2ccc(C)c(F)c2)nc1N(C)C, the “% Inhibition” value is reported as -8% and the Z score is reported as 1.49.
O=C1CCCC[C@@H](C(=O)N2CCCCC2)N1 was tested, and the “% Inhibition” value was 5% and the Z score was -0.89.
With CCC(=O)Nc1nc2ccc(NS(=O)(=O)Cc3ccccc3)cc2s1 the “% Inhibition” value was 31% and the Z score was -0.31.
For O=C(COc1ccc(N2C[C@@H](C(=O)NCc3ccc4c(c3)OCO4)CC2=O)cc1)Nc1ccc(Cl)cc1, the “% Inhibition” value was -12% and the Z score was 1.78.
CC(C)Oc1cccc(C(=O)[C@H]2CCCN(c3nc(C(N)=O)cs3)C2)c1 was tested, and the “% Inhibition” value was -16% and the Z score was 2.23.
For Cc1cccc(-c2noc(N3CCOCC3)c2CN(Cc2ccco2)C(=O)c2ccc(F)cc2)c1, the “% Inhibition” value was -11% and the Z score was 1.36.
With CC(C)Cn1c(=O)c2sccc2n(CC(=O)N(C)c2ccccc2)c1=O the “% Inhibition” value was 2% and the Z score was -0.28.
CC(C)Cc1cc(C(=O)NCC2(O)CCCCC2)on1 was tested, and the “% Inhibition” value was -14% and the Z score was 1.39.
